Data: PubChem BioAssay (NCATS)
This is one part of the list. Further columns of the screen follow, without active or inactive calls. Potencies come from curve fits of mixed quality, noted in brackets.

assay: qHTS drug screen for cell cycle checkpoint inhibitors in PARPi-resistant BRCA-mutant ovarian cancer cell lines. (AID 1963452); conditions: PEO1/OlaR viability, CellTiter-Glo luminescence, 96 h; measured here: PEO1 parental viability
Method in brief: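 PEO1, PEO4 and PEO1/OlaR ovarian cancer cells, 600 per well, exposed 96 h at 37C to a dilution series. Viability read by CellTiter-Glo luminescence, normalized to DMSO and empty wells; activity summarized as Z-AUC.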
Tags describe the fitted curve by direction and shape.

SMILES	AC50
Cn1ncc2cc(-c3cnc(N)c(Cl)c3N3CCC4(CCNC4=O)CC3)ccc21	24.5 µM [falling, single point]
Cc1nc(C)c(CN2CCN(C(c3ccc(F)cc3)c3ccc(F)cc3)CC2)nc1C	24.5 µM [falling, single point]
Cc1cc(F)c(C(=O)Nc2cccc(-c3nncn3C(C)C)n2)cc1-n1cnc(C2CC2)c1	8.71 µM [falling, partial curve, poor fit]
[2H]C([2H])(Nc1nc(-c2ccccc2C([2H])(C([2H])([2H])[2H])C([2H])([2H])[2H])ncc1C)c1ccc(-n2ccnn2)cc1	21.9 µM [falling, single point]
CCCCc1ccc(NS(=O)(=O)c2ccc(C)c(C(=O)N3CCN(c4cccc(C)c4C)CC3)c2)cc1	25.1 µM [falling, partial curve, poor fit]
O=c1ncn2nc(Sc3ccc(F)cc3F)ccc2c1-c1c(Cl)cccc1Cl	17.4 µM [falling, partial curve, poor fit]
CCN(CC)CCCC[C@H](NC(=O)[C@H](CC(C)C)NC(=O)[C@H](C)NC(=O)[C@H](Cc1ccccc1)NC(=O)c1ccc(C(C)(C)C)cc1)C(=O)N[C@@H](CO)C(=O)OC	0.309 µM [rising, full curve, poor fit]
CC(C)c1noc(N2CCC(COc3ccc(-c4ccc(S(C)(=O)=O)cc4)nc3)CC2)n1	2.19 µM [falling, full curve]
Cn1c(NC[C@@H](N)Cc2ccccc2)nc(-c2ccncc2)c(-c2ccc3ccccc3c2)c1=O	17.4 µM [falling, partial curve, poor fit]
CC1(C)OC2=C(C(=O)c3ccccc3C2=O)[C@H](NCc2ccccc2)[C@@H]1O	7.76 µM [rising, partial curve, poor fit]
CCN(c1cc(C#CCN2CCOCC2)cc(C(=O)NCc2c(C)cc(C)[nH]c2=O)c1C)C1CCC(N(C)CCOC)CC1 (stereo not given)	0.0549 µM [rising, full curve, poor fit]
CCCNS(=O)(=O)Nc1ncnc(OCCOc2ncc(Br)cn2)c1-c1ccc(Br)cc1	0.616 µM [rising, partial curve, poor fit]
CC(C)S(=O)(=O)c1ccc2nccc(Nc3ccc4scnc4c3)c2c1	15.5 µM [falling, partial curve, poor fit]
O=C(CCNC(=O)c1ccc(OC(F)(F)F)cc1)N[C@@H]1CCCc2ccccc21	0.692 µM [falling, full curve, poor fit]
COc1nc(N)nc2c1ncn2C1OC(CO)C(O)C1O (stereo not given)	6.16 µM [falling, partial curve, poor fit]
COc1ccc(Cc2ccc(NC(N)=O)cc2)cc1-c1cccc(Cl)c1	17.4 µM [falling, single point]
CNC(=O)c1ccc2cc(C3(O)CCn4cncc43)ccc2c1 (stereo not given)	1.38 µM [falling, partial curve, poor fit]
C=C1[C@H](CO)[C@@H](O)C[C@@H]1n1cnc2c(=O)[nH]c(N)nc21	0.871 µM [rising, full curve]
Cc1[nH]c(/C=C2\C(=O)Nc3ccc(F)cc32)c(C)c1C(=O)NC[C@H](O)CN1CCOCC1	13.8 µM [falling, partial curve]
CN(NC(=O)CC(=O)NN(C)C(=S)c1ccccc1)C(=S)c1ccccc1	0.219 µM [rising, full curve, poor fit]
COc1ccc(Cl)c(Nc2nc3ccccc3nc2NS(=O)(=O)c2cccc(NC(=O)C(C)(C)N)c2)c1	27.5 µM [falling, single point]
COc1ccc2[nH]c(S(=O)Cc3ncc(C)c(OC)c3C)nc2n1 (stereo not given)	0.0549 µM [falling, full curve, poor fit]
CCCCCCCCCCCCc1ccc(S(=O)(=O)Nc2nncs2)cc1	4.36 µM [rising, full curve, poor fit]
CCc1cc2c(c(OCC(F)(F)F)c(C(=O)NC3CCN(C(=O)CO)CC3)n2C)c(=O)n1CC(=O)c1ccccc1	0.0549 µM [falling, full curve, poor fit]
COC1CCN(C(=O)c2cc(Cc3n[nH]c(=O)c4ccccc34)ccc2F)CC1	11 µM [falling, partial curve]

same assay, conditions: PEO1/OlaR viability, CellTiter-Glo luminescence, 96 h; measured here: PEO4 viability

SMILES	AC50
Cn1cc(/C=C/C(=O)c2cccc(F)c2)cc1/C=C/C(=O)NO	27.5 µM [falling, partial curve, poor fit]
CC#C[C@@H](CC(=O)O)c1ccc(OCc2cccc(-c3ccc(C(F)(F)F)cc3)c2)cc1	17.4 µM [falling, partial curve, poor fit]
O=C(NCc1cccc(O)c1)Nc1nc(-c2ccncc2)cs1	9.77 µM [falling, partial curve, poor fit]
Nc1ncnc2c1C(=O)N(c1ccc(C3CCC(CC(=O)O)CC3)cc1)CCO2 (stereo not given)	12.3 µM [rising, partial curve, poor fit]
C[C@@H]1CN(CC(=O)N2CC(C)(C)c3ncc(Cc4ccc(F)cc4)cc32)[C@@H](CN2CCOC[C@H]2C)CN1	2.45 µM [falling, partial curve, poor fit]
N#C/C(=C(/N)Sc1ccc(N)cc1)c1ccccc1C(F)(F)F	27.5 µM [falling, single point]
COc1cc(OCc2cccc(-c3ccccc3)c2C)cc(OC)c1CN1CCCC[C@H]1C(=O)O	24.5 µM [falling, single point]
Nc1nc(OC(c2ccc(-c3cccc(F)c3)cc2)C(F)(F)F)cc(-c2ccc(C[C@H](N)C(=O)O)cc2)n1 (stereo not given in full)	24.5 µM [falling, partial curve, poor fit]
[O-][n+]1cccc(-c2nc3c(Cl)cccc3cc2[C@@H](Nc2ncnc3cccnc23)C(F)(F)F)c1	0.138 µM [falling, single point]
Cc1cc(C)cc(NC(=O)Cc2ccc(OC(C)(C)C(=O)O)cc2)c1	0.0039 µM [rising, full curve, poor fit]
Cn1cc(-c2ccc(-c3cncc(Cl)c3N3CCC4(CCNC4=O)CC3)cc2)cn1	0.219 µM [falling, full curve]
Nc1nc2cc(-c3ccc4ncc(C(=O)N5CCOCC5)n4c3)ccc2o1	9.77 µM [falling, partial curve, poor fit]
CN(C)C[C@@H]1CCn2cc(c3ccccc32)C2=C(C(=O)NC2=O)c2cn(c3ccccc23)CCO1	0.436 µM [falling, partial curve, poor fit]
CN1CC[C@@H](NC(=O)Nc2ccc(C#N)cc2)C[C@@H]1c1nc2ccccc2[nH]1	2.19 µM [falling, partial curve]
C[C@H]1[C@H](C)CC[C@]2(C(=O)O)CC[C@]3(C)C(=CC[C@@H]4[C@@]5(C)C[C@@H](O)[C@H](O)[C@@](C)(CO)[C@@H]5CC[C@]43C)[C@H]12	27.5 µM [falling, single point]
